Experimental data: the supplement of paper PMC10126150
Values marked as one replicate rest on one cluster of the flow cell; about a third of the high ones do not repeat.

system: ATP; test: switch fluorescence ratio, 500 uM ATP over buffer (Cy3 cluster intensity, sum of 5 cycles each) (fold (ratio)); higher = stronger signal-on switching upon ATP binding; sequences stand for … in TCGTCGGCAGCGTCAGATGTGTATAAGAGACAGTTTTTTTTTTTTTTTTTTTTTTTTT…TC; settings: aptamer strand: ATP DNA aptamer (quencher-CACCTGGGGGAGTATTGCGGAGGAAGG + anchor), 100 nM annealed; ATP concentration: 500 uM; one replicate
In short: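 Clusters with intensities outside 100-1000 RFU were excluded. The remaining Cy3-labelled switching-strand clusters on a modified Illumina MiSeq flow-cell had been annealed to 100 nM quencher-labelled ATP aptamer and imaged in selection buffer, then after 15 min with 500 uM ATP at 22 °C, for five cycles separated by NaOH stripping and re-annealing. The fluorescence ratio, averaged per switch-domain sequence, is each cluster's summed target-cycle Cy3 intensity over its summed buffer-cycle Cy3 intensity.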
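Further: ATP exposure 15 min at 22 °C before imaging.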

| Sequence | switch fluorescence ratio |
| --- | --- |
| ACATCAGATA | 1.06 |
| ACATCAGGTT | 1.02 |
| ACATCCACGG | 1.43 |
| ACATCTAGCT | 0.998 |
| ACATCTTTCG | 1 |
| ACATGAGATA | 0.952 |
| ACATGCTTGG | 0.98 |
| ACATGGCCA | 1.03 |
| ACATGGGATA | 1 |
| ACATGGGCAT | 0.965 |
| ACATGGGGT | 0.97 |
| ACATGTATTC | 1.02 |
| ACATGTTGTG | 0.992 |
| ACATTAACGA | 1.16 |
| ACATTACCAT | 1.04 |
| ACATTAGCGC | 1.04 |
| ACATTAGGCG | 1.07 |
| ACATTAGTCT | 1.03 |
| ACATTATATA | 1.07 |
| ACATTATCGA | 1.03 |
| ACATTCACTG | 1.11 |
| ACATTCGGAG | 0.951 |
| ACATTCTTGA | 0.992 |
| ACATTGGCTG | 1.06 |
| ACATTTACCG | 1.22 |

| Sequence | switch fluorescence ratio |
| --- | --- |
| ACCAACACAA | 1.25 |
| ACCAAGTGCA | 0.976 |
| ACCAAGTTAA | 1.02 |
| ACCAATCGGC | 1.04 |
| ACCACAAGCT | 1.06 |
| ACCACTAACC | 1.12 |
| ACCACTCT | 1.01 |
| ACCACTGG | 1.03 |
| ACCACTGGGG | 1.03 |
| ACCAGCCGCG | 1.08 |
| ACCAGCGAGG | 0.993 |
| ACCAGCGGGA | 1.01 |
| ACCAGGGCA | 1.01 |
| ACCAGGTGCG | 3.18 |
| ACCAGTCATC | 1.04 |
| ACCATATGTA | 1.01 |
| ACCATATTAC | 1.19 |
| ACCATCAGAA | 1.03 |
| ACCATGGTCA | 0.975 |
| ACCATTAAGA | 1.01 |
| ACCATTATC | 1.06 |
| ACCCAACTAA | 1.13 |
| ACCCACCCGT | 1.28 |
| ACCCAGCAC | 1.14 |
| ACCCAGGTTG | 5.61 |

| Sequence | switch fluorescence ratio |
| --- | --- |
| ACCCCGTCGG | 1.03 |
| ACCCGGTGAT | 1.67 |
| ACCCGTCCGC | 2.77 |
| ACCCTAGGGC | 1.04 |
| ACCCTATCGT | 1.08 |
| ACCCTATTAC | 1.16 |
| ACCCTCACTA | 1.19 |
| ACCGAAGTA | 1.02 |
| ACCGAATGTG | 1.05 |
| ACCGACACGT | 1.28 |
| ACCGAGGG | 1.07 |
| ACCGCATGGG | 1.17 |
| ACCGCGCGCC | 1.1 |
| ACCGGCTTTC | 1.02 |
| ACCGGGAGTG | 0.983 |
| ACCGGGCTAA | 1.07 |
| ACCGGGCTAG | 1.08 |
| ACCGGGGCGT | 1.02 |
| ACCGGGTGCG | 1.05 |
| ACCGGGTGGT | 1.11 |
| ACCGGGTTCC | 1.08 |
| ACCGGTCAAG | 0.998 |
| ACCGGTGTGG | 0.995 |
| ACCGTACGGG | 0.994 |
| ACCGTCACCA | 1.3 |

| Sequence | switch fluorescence ratio |
| --- | --- |
| ACCGTCCACA | 1.25 |
| ACCGTCCTTC | 1.09 |
| ACCGTGAGTG | 1.06 |
| ACCGTGGTTT | 1.01 |
| ACCGTTAAAC | 1.28 |
| ACCGTTTCGG | 0.963 |
| ACCGTTTTTG | 0.988 |
| ACCTAGAAAC | 1.11 |
| ACCTAGGCGT | 1.03 |
| ACCTAGTGGC | 1.07 |
| ACCTATAGAT | 1 |
| ACCTATATTC | 1.09 |
| ACCTCAAGGA | 0.995 |
| ACCTCAGGCG | 1.52 |
| ACCTCGGACG | 1.07 |
| ACCTCTGTCT | 1.03 |
| ACCTGAGACA | 1.04 |
| ACCTGGGAAA | 1.01 |
| ACCTGGTGCC | 1.63 |
| ACCTGTATGC | 1.05 |
| ACCTTAAACT | 1.05 |
| ACCTTTATAG | 0.992 |
| ACCTTTCCTT | 1.3 |
| ACGAAAAATT | 1.03 |
| ACGAACCCAA | 1.85 |

| Sequence | switch fluorescence ratio |
| --- | --- |
| ACGAACGCCT | 1.59 |
| ACGAACTCGT | 0.993 |
| ACGAAGACCG | 0.944 |
| ACGAAGACGT | 0.976 |
| ACGAAGGTTG | 0.992 |
| ACGAATATAG | 1.01 |
| ACGACAGGTA | 1.02 |
| ACGACCCAAT | 3.18 |
| ACGACGGGCC | 1.1 |
| ACGACGGTCT | 1.17 |
| ACGACTACGC | 1.35 |
| ACGAGAAAGG | 1.01 |
| ACGAGATAAT | 1.07 |
| ACGAGCATAT | 4.34 |
| ACGAGCTCAG | 1.23 |
| ACGAGGAGGA | 1.02 |
| ACGAGGGCGC | 1.17 |
| ACGAGGTG | 1.05 |
| ACGAGGTGAG | 0.997 |
| ACGAGTAATC | 1.22 |
| ACGAGTGGGG | 1.03 |
| ACGAGTTATT | 0.981 |
| ACGATCTGGA | 0.947 |
| ACGATGCCGG | 0.949 |
| ACGATGGGAT | 1.01 |

| Sequence | switch fluorescence ratio |
| --- | --- |
| ACGATTTATA | 1.02 |
| ACGATTTCCA | 1.01 |
| ACGCAAAGCT | 2.47 |
| ACGCACTTGA | 1.32 |
| ACGCACTTTA | 1.48 |
| ACGCAGCAGT | 4.47 |
| ACGCATCGCA | 1.09 |
| ACGCATTACG | 4.05 |
| ACGCCAGTCT | 1 |
| ACGCCCACCA | 1.46 |
| ACGCCCTCTT | 1.1 |
| ACGCGACTTC | 1.27 |
| ACGCGATAAT | 1.78 |
| ACGCGATGAT | 1.05 |
| ACGCGCTAAG | 1 |
| ACGCGGCTTT | 0.998 |
| ACGCGGGACC | 0.994 |
| ACGCGGTACA | 1.07 |
| ACGCGTACGT | 1.04 |
| ACGCTAATGG | 1.48 |
| ACGCTCTCGT | 0.971 |
| ACGCTCTTTG | 1.01 |
| ACGCTTAGCA | 1.04 |
| ACGGAAAGC | 1.18 |
| ACGGAACCTA | 1.11 |

| Sequence | switch fluorescence ratio |
| --- | --- |
| ACGGACACTA | 1.2 |
| ACGGAGACCC | 1.09 |
| ACGGAGTTAA | 1.01 |
| ACGGATATGT | 1.06 |
| ACGGATTCTA | 0.984 |
| ACGGCAATTT | 1.31 |
| ACGGCCAGGG | 1.32 |
| ACGGCCCAAA | 1.05 |
| ACGGCCCTAG | 1.05 |
| ACGGCCGATT | 1.03 |
| ACGGCTGAAG | 1.02 |
| ACGGCTGAGA | 1.03 |
| ACGGCTGCTC | 1.09 |
| ACGGCTTGAC | 1.05 |
| ACGGGAATGG | 1.04 |
| ACGGGACCGA | 0.992 |
| ACGGGACTGG | 1.08 |
| ACGGGCAACT | 1.11 |
| ACGGGCCGTG | 0.99 |
| ACGGGCGCGA | 1.02 |
| ACGGGGATAT | 1.13 |
| ACGGGGCGCA | 1.02 |
| ACGGGGGAG | 0.921 |
| ACGGGTCATG | 1.01 |
| ACGGGTCGCT | 0.994 |

| Sequence | switch fluorescence ratio |
| --- | --- |
| ACGGGTGCTG | 0.962 |
| ACGGTATAGC | 1.07 |
| ACGGTGATTT | 1.05 |
| ACGGTGGGG | 1.03 |
| ACGGTGTGGG | 1.01 |
| ACGGTTAAAT | 0.999 |
| ACGGTTACCC | 1.63 |
| ACGGTTATCT | 1.02 |
| ACGGTTGGTC | 0.977 |
| ACGGTTTCAA | 1.03 |
| ACGGTTTCGG | 1.03 |
| ACGTACGTAA | 1.1 |
| ACGTAGCCGA | 0.978 |
| ACGTAGCGGA | 1.65 |
| ACGTAGGTAT | 1.1 |
| ACGTAGTATC | 1 |
| ACGTAGTCGG | 1.02 |
| ACGTATTAAA | 1.02 |
| ACGTATTGAA | 1.1 |
| ACGTCAGGCT | 1.02 |
| ACGTCGGAAG | 1 |
| ACGTCGTCAA | 1.29 |
| ACGTCTATAT | 1.08 |
| ACGTGAAATC | 0.986 |
| ACGTGACCAG | 1.28 |
